This note sets out measurements from PMC4336329 (PLoS ONE, 2015).

The structures appear in SMILES notation. The whole screen tested about 310,000 compounds, of which about 14,000 (4.5%) showed an effect of 50% or more. Effects have a minus sign here. Some of the results follow.
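Note: peak tail current of the secondary pulse compared with the same well before compound.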

Chain of human ether-à-go-go-related gene (hERG) potassium channel (Q12809 whole entry, looked up): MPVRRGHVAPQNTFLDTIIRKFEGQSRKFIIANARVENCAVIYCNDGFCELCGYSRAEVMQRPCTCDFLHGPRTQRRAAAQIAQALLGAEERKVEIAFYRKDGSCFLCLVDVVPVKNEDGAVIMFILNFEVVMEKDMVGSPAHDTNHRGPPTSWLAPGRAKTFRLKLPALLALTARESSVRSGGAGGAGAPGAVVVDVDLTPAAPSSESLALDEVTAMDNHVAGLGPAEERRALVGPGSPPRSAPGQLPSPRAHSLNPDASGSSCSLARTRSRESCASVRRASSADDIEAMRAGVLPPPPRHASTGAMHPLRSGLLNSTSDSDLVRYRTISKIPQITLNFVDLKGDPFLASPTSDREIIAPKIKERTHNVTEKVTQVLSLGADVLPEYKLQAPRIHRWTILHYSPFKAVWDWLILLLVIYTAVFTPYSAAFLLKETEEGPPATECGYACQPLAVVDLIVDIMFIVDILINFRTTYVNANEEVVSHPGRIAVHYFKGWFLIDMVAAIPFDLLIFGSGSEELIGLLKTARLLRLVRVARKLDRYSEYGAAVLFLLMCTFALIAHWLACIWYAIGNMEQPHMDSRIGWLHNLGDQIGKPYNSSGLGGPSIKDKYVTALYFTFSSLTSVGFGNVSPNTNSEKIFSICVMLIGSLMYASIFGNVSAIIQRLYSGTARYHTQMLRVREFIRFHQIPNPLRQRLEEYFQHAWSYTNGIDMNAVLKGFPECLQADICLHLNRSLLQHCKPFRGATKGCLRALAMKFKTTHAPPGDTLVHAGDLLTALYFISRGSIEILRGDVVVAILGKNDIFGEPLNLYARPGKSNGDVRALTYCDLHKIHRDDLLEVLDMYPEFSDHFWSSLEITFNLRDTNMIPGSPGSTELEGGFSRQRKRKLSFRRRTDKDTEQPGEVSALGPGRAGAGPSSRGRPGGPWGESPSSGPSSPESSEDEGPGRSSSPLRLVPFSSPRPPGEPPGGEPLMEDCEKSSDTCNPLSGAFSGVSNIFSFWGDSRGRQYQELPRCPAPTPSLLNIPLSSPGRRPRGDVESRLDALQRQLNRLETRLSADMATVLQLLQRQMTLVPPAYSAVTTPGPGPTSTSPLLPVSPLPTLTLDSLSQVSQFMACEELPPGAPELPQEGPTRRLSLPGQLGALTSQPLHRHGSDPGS

The assay has as its target human ether-à-go-go-related gene (hERG) potassium channel (human, UniProt Q12809). Briefly: primary screen, population patch clamp on CHO cells stably expressing hERG.
Turning to `O=C(Nc1cccc(C(F)(F)F)c1)Nc1ccc(N2CCCC2)c(S(=O)(=O)Nc2ccccc2Cl)c1`, the “hERG current change (%, negative = inhibition) at 10uM” value is 9.74%.

In the case of `Cc1ccc([N+](=O)[O-])cc1N(CC(=O)NCC1CCCO1)S(C)(=O)=O` (stereo not shown), the “hERG current change (%, negative = inhibition) at 10uM” value is on record as 13.8%.

As to `Cc1ccc(Cl)cc1N1CCN(C(=O)Cc2c(C(=O)O)[nH]c3ccccc23)CC1`, the “hERG current change (%, negative = inhibition) at 10uM” value is given as -6.17%.

Take `Cn1cc(CCNC(=O)C2CCC(=O)N(CCc3ccc(Cl)cc3)C2)cn1` (stereo not shown): the “hERG current change (%, negative = inhibition) at 10uM” value was -11.6%.

As for `Cc1sc2ncnc(Nc3ccc(N4CCOCC4)cc3)c2c1-c1ccccc1`, the “hERG current change (%, negative = inhibition) at 10uM” value is on record as -1.77%.

Consider `Cc1coc2c1c(C)cc1oc(=O)c(CC(=O)NCC(=O)N[C@H](C(=O)O)C(C)C)c(C)c12`, for which the “hERG current change (%, negative = inhibition) at 10uM” value is given as 17.3%.

In the case of `COc1ccc2nc3cc(Cl)ccc3c(Nc3cc(C(C)C)c(O)cc3C)c2c1`, the “hERG current change (%, negative = inhibition) at 10uM” value was determined as 27.2%.

As for `CCOC(=O)N1CCN(C(=O)c2ccc3c(=O)n4c(nc3c2)CCCCC4)CC1`, the “hERG current change (%, negative = inhibition) at 10uM” value is reported as -2.31%.

With `CCN(CC)c1ccc2c(O)cc(=O)oc2c1`, the “hERG current change (%, negative = inhibition) at 10uM” value is reported as 1.84%.

For `N/C(=N\OC(=O)c1cccc([N+](=O)[O-])c1)c1cccnc1`, the “hERG current change (%, negative = inhibition) at 10uM” value worked out at 0.913%.

Regarding `Cc1cccc(CNC(=O)C2CCC(=O)N(C3CC3)C2)c1` (stereo not shown), the “hERG current change (%, negative = inhibition) at 10uM” value was 9.51%.

Regarding `Cc1ccc(/C=C2/C(=N)N3N=C(CC(=O)N4CCCC4)SC3=NC2=O)o1`, the “hERG current change (%, negative = inhibition) at 10uM” value is recorded as 17.6%.

In the case of `COc1ccc(OCc2nc(-c3ccc(F)c(F)c3)cs2)cc1`, the “hERG current change (%, negative = inhibition) at 10uM” value worked out at 12.5%.

Regarding `O=C(CSc1nnc(CNC(=O)c2ccccc2F)o1)Nc1cccc(C(F)(F)F)c1`, the “hERG current change (%, negative = inhibition) at 10uM” value is -29%.

`O=C(CCc1nc(-c2ccccc2)no1)Nc1cccnc1`: the “hERG current change (%, negative = inhibition) at 10uM” value is -2.85%.

For `N#Cc1c(-c2ccccc2)nc2n1CCS2`, the “hERG current change (%, negative = inhibition) at 10uM” value is recorded as 5%.

Consider `CC(C)(C)C(=O)N1CCN(C(=O)c2ccco2)CC1`, for which the “hERG current change (%, negative = inhibition) at 10uM” value worked out at 12.5%.

For the compound `Cc1c(Cl)c([N+](=O)[O-])nn1CCCC(=O)Nc1cccc(Cl)c1`, the “hERG current change (%, negative = inhibition) at 10uM” value is recorded as -51.7%.

With `Cc1cccn2c(=O)c3c(nc12)N1CCc2ccccc2C1C1(C3)C(=O)NC(=O)N(C)C1=O` (stereo not shown), the “hERG current change (%, negative = inhibition) at 10uM” value is 9.79%.

`CC(C)C[C@H](NC(=O)N1CCn2c1nc1ccccc12)C(=O)N[C@H](Cc1ccccc1)C(=O)O`: the “hERG current change (%, negative = inhibition) at 10uM” value came to 15.9%.

`CCN(CC)CC(=O)NC1CC(C)(C)Cc2c1cnn2-c1ccc(F)cc1` (stereo not shown): the “hERG current change (%, negative = inhibition) at 10uM” value came to 7.43%.

As for `O=C(NCCCN1CCCC1=O)c1ccc2c(=O)n(Cc3ccco3)c(=S)[nH]c2c1`, the “hERG current change (%, negative = inhibition) at 10uM” value was -17.8%.

Regarding `CC1(C)OC(=O)C(=CNc2ccccc2)C(=O)O1`, the “hERG current change (%, negative = inhibition) at 10uM” value is -4.48%.

Consider `COC(=O)[C@@H](NC(=O)O[C@@H]1C(=O)c2ccc(OC)cc2O[C@H]1c1cccc(C(F)(F)F)c1)C(C)C`, for which the “hERG current change (%, negative = inhibition) at 10uM” value is reported as 5.54%.

In the case of `COc1ccccc1N(C)S(=O)(=O)c1ccc(C(=O)OCC(=O)NCC(F)(F)F)cc1`, the “hERG current change (%, negative = inhibition) at 10uM” value is 7.97%.

In the case of `COC(=O)c1cc(S(=O)(=O)N2CCCC(C)C2)cn1C` (stereo not shown), the “hERG current change (%, negative = inhibition) at 10uM” value is recorded as -16%.

Consider `Cc1cc(/C=N/NC(=O)C(=O)NCc2ccccn2)c(C)n1-c1cccc(Br)c1`, for which the “hERG current change (%, negative = inhibition) at 10uM” value is reported as -14.8%.

Regarding `CN(CC(=O)N1CCN(c2ccccc2)CC1)C1CCCc2ccccc21` (stereo not shown), the “hERG current change (%, negative = inhibition) at 10uM” value is reported as -29%.

In the case of `COc1cccc(CN(C)CC(=O)Nc2ccccc2N2CCOCC2)c1OC`, the “hERG current change (%, negative = inhibition) at 10uM” value was -12.8%.

Turning to `CCN(CC(=O)NCc1cccs1)CC(=O)Nc1c(Cl)ccc(C)c1Cl`, the “hERG current change (%, negative = inhibition) at 10uM” value is -16.8%.

Regarding `COc1ccc(NC(=S)NC2CCCCC2)c(OC)c1`, the “hERG current change (%, negative = inhibition) at 10uM” value is -5.06%.

For `CC1=C(C(=O)Nc2ccccc2C)C(c2ccc(C)o2)C2=C(CCCC2=O)N1` (stereo not shown), the “hERG current change (%, negative = inhibition) at 10uM” value is 5.37%.

With `Cc1cc(NC(=O)c2ccc(Cl)cc2)no1`, the “hERG current change (%, negative = inhibition) at 10uM” value was found to be 10.9%.

On to `COC(=O)/C=C/c1ccccc1S(=O)(=O)N(Cc1ccccc1)Cc1ccco1`, for which the “hERG current change (%, negative = inhibition) at 10uM” value was -13%.

`O=C1C2C3C=CC(C2C(=O)N1CCCO)C1C2C(=O)N(CCCO)C(=O)C2C31` (stereo not shown): the “hERG current change (%, negative = inhibition) at 10uM” value worked out at 21.2%.

On to `COC(=O)CN(c1cccc(C)c1)S(=O)(=O)c1ccccc1`, for which the “hERG current change (%, negative = inhibition) at 10uM” value is reported as -14%.

As for `Cc1ccc(S(=O)(=O)Oc2cccc(N3C(=O)C4CC=CCC4C3=O)c2)cc1` (stereo not shown), the “hERG current change (%, negative = inhibition) at 10uM” value is reported as -17.3%.

With `CCOC(=O)c1ccc(-n2ccnc2)c(NC(=O)c2ccc(C(C)(C)C)cc2)c1`, the “hERG current change (%, negative = inhibition) at 10uM” value is listed as -41%.

As for `CC(CCc1ccccc1)NC(=O)CN1CCc2ccccc2C1` (stereo not shown), the “hERG current change (%, negative = inhibition) at 10uM” value is -22.4%.

In the case of `CCn1ncc([N+](=O)[O-])c1C(=O)Nc1c(C)nn(Cc2ccc(F)cc2)c1C`, the “hERG current change (%, negative = inhibition) at 10uM” value was -34.8%.

`CC(=O)N1c2c(cc(Br)cc2S(=O)(=O)NCC2COc3ccccc3O2)CC1C` (stereo not shown): the “hERG current change (%, negative = inhibition) at 10uM” value is -44.5%.

With `CC1CCCN(CCC(=O)Nc2ccc(Br)cc2)C1.Cl` (stereo not shown), the “hERG current change (%, negative = inhibition) at 10uM” value is -57.6%.

For `CN(Cc1ccccc1)S(=O)(=O)c1cccc2nsnc12`, the “hERG current change (%, negative = inhibition) at 10uM” value is -1.15%.

Take `CCC(C)(C(=O)NC1CCCCC1)N(C(=O)CNC(=O)c1ccccc1)c1c(C)n(C)n(-c2ccccc2)c1=O` (stereo not shown): the “hERG current change (%, negative = inhibition) at 10uM” value was 10.1%.

As to `CC1=NN(c2cccc(Cl)c2)C(=O)C1`, the “hERG current change (%, negative = inhibition) at 10uM” value is 6.9%.

Regarding `Cc1ccccc1C(=O)NC1CCSC1=O` (stereo not shown), the “hERG current change (%, negative = inhibition) at 10uM” value is -8.72%.

On to `CCc1ccccc1N(CC(=O)N1CCN(c2ccc(F)cc2)CC1)S(C)(=O)=O`, for which the “hERG current change (%, negative = inhibition) at 10uM” value is recorded as -35.7%.

In the case of `CCn1c(SCC(=O)c2ccc(Cl)cc2)nnc1-c1ccoc1C`, the “hERG current change (%, negative = inhibition) at 10uM” value is recorded as -32.5%.

In the case of `COc1ccc(/C=C2\SC(=O)N(CC(=O)Nc3cccnc3)C2=O)cc1OC`, the “hERG current change (%, negative = inhibition) at 10uM” value is given as 22.9%.

In the case of `Cn1c(SCC(=O)N/N=C/C=C/c2ccccc2[N+](=O)[O-])nc2ccccc21`, the “hERG current change (%, negative = inhibition) at 10uM” value is given as -1.36%.

With `CCN(CC)S(=O)(=O)N1CCN(S(=O)(=O)N2CCOCC2)CC1`, the “hERG current change (%, negative = inhibition) at 10uM” value was found to be 11%.

For the compound `CC(=O)O.CN(C)Cc1cn(CCC(=O)O)c2ccccc12`, the “hERG current change (%, negative = inhibition) at 10uM” value turned out to be 11.7%.

For `COc1ccc(C(=O)NCc2ccc3c(c2)OCO3)c(OC)c1`, the “hERG current change (%, negative = inhibition) at 10uM” value was determined as 4.98%.

Consider `CNc1sc(C(=O)c2ccc(F)cc2)c(N)c1-c1nc2ccccc2s1`, for which the “hERG current change (%, negative = inhibition) at 10uM” value is 12.2%.

As for `CCCC(c1c(C)n(C)n(-c2ccccc2)c1=O)c1c(C)n(C)n(-c2ccccc2)c1=O`, the “hERG current change (%, negative = inhibition) at 10uM” value is on record as 0.692%.
